This note sets out measurements from PMC10726135.

This is one part of the list. At the low end of the ranking, values are background and their order means little. Measured with an extract: partners may take part in the binding.

In the experiment the target is T1, HNF4alpha8 (COS-7 nuclear extract) (UniProt P41235-5).
T1 sequence: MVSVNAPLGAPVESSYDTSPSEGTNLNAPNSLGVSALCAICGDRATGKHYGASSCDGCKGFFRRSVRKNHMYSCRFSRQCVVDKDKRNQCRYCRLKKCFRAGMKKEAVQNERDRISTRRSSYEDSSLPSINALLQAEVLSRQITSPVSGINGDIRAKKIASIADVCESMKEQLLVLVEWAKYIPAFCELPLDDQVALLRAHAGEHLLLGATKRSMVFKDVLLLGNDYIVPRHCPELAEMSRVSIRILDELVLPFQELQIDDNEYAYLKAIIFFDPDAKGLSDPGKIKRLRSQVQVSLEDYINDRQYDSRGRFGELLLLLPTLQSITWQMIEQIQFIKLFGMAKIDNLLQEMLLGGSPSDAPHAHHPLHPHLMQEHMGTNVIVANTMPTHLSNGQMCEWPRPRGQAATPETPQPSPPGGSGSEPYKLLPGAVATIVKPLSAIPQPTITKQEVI
The experiment can be described thus: protein-binding microarray. Particulars: COS-7 nuclear extract on double-stranded Agilent 4x180k PBM; binding buffer, salt, pH and temperature not given; high values mean tight binding; double strand, one strand shown; sequences stand for … in …GCCTAGGGAGATTAGAGTATCGGTCGA
As to CTGGCAGTGAAGGTTCAGTGAAGTAGTGTG, the binding signal (log2 normalized intensity) came out at 1.17.

For AAGTATCTCGGTCAAACCTTTGACCCTTTA, the binding signal (log2 normalized intensity) worked out at 6.9.

For the sequence CCTTGCCTGGCTACCTCTTAGCTACCCTGT, the binding signal (log2 normalized intensity) is 0.678.

For the sequence GGACCACGATCAGCCAGCAGGGGGCGCAGA, the binding signal (log2 normalized intensity) is -1.3.

Turning to CCCCGCCCCCAGTGCACCTTAATAAGCACA, the binding signal (log2 normalized intensity) came out at 4.29.

In the case of TTTCCATTTTTGCTCCTGCACTTTTGTGCT, the binding signal (log2 normalized intensity) worked out at 1.01.

For the sequence GCACTTTTGGAGTTTGACCTGGAGCCAGGG, the binding signal (log2 normalized intensity) turned out to be 5.7.

On to CTACTGCCAGCCAGGGCCACCCATCAGTGG, for which the binding signal (log2 normalized intensity) was -1.27.

Turning to GTTACCTTGGGGTCAAAGTACATCCCCTAA, the binding signal (log2 normalized intensity) was found to be 7.38.

For the sequence GCTGCATTTGTCCGGGTATGTTCTTAAGAT, the binding signal (log2 normalized intensity) turned out to be 1.8.

For CTGACTTGCAACCTTTGCCCTGTTGTCTTT, the binding signal (log2 normalized intensity) was found to be 6.07.

For AGATAAACCAAGCCTGCAGCACCTTGATGC, the binding signal (log2 normalized intensity) was -1.18.

As to GAGTGAACCTAGTGGCTGTGGAAGTCTGGC, the binding signal (log2 normalized intensity) was -0.418.

Regarding TTGGCTGATAAAACAAATCTACAAATGTTT, the binding signal (log2 normalized intensity) came to 0.674.

Turning to CAGGATTCTTGCTGCAGCTGGGCTATACAA, the binding signal (log2 normalized intensity) was -1.3.

On to AAATTCCAATATAGCAAAGAGAGTCAAAGT, for which the binding signal (log2 normalized intensity) is 1.15.

Take GGGAGGACAAAGTTCTGTCCTTTGTCCCCC: the binding signal (log2 normalized intensity) is 4.83.

Consider CTCCTCCCTCAGGGATCTTTGCACTTGATG, for which the binding signal (log2 normalized intensity) turned out to be 1.65.

For the sequence GGGCGTGTAGGGAGTGGTTCCCACAGCCCA, the binding signal (log2 normalized intensity) is -1.33.

As for TGAGGATGGGCAGTCCCTATAGCCTCACTT, the binding signal (log2 normalized intensity) is -1.3.

Consider GCTCTGCATATGCCAACAGGTGCTCTTTAT, for which the binding signal (log2 normalized intensity) is 0.904.

In the case of TAGGCCTCAAGACAAACAATAGATAGGACA, the binding signal (log2 normalized intensity) is -0.918.

In the case of TTTTCCTTGGCTGTGCTGCCCTTTGCCCTT, the binding signal (log2 normalized intensity) stood at 8.52.

Turning to GGTGACAAGGAAAACTACACTCTTGCTAAA, the binding signal (log2 normalized intensity) was -1.22.

Take GATGCTGGGCAGCTTGTGTGCGTTTCCCAG: the binding signal (log2 normalized intensity) is 0.101.

In the case of TGGATGGATTCAGATCCAGTGGACTCTCTG, the binding signal (log2 normalized intensity) turned out to be 3.71.

As to TTTGCCATTTGGAGAGAGTTTGGCCCCAGT, the binding signal (log2 normalized intensity) is 2.83.

Take AGGATGACAAAGAGCAAGTGACCCTCAGAC: the binding signal (log2 normalized intensity) was 3.47.

Take TCAGAAAGGTCAGCGCTTTGGTAGGCTGTA: the binding signal (log2 normalized intensity) came to 0.135.

On to GCAATGGCTTCACAATTCCTAGCAATTCAA, for which the binding signal (log2 normalized intensity) is -1.29.

As for ATGTGTTACACCTGTGTGTACTGGGCAGAT, the binding signal (log2 normalized intensity) was found to be 1.46.

As to AATGAGTGTGGGACTTGAGGTCTTATCTTT, the binding signal (log2 normalized intensity) was 1.46.

For the sequence ATCCCTGTTGCCTCATCTGAAAAAAGCTAT, the binding signal (log2 normalized intensity) is -1.03.

In the case of AAACAACACACCTTGCCACCCACACTGCAG, the binding signal (log2 normalized intensity) was -1.22.

Regarding GCGCCACATTCTGAGCCAGCACTTCGACCT, the binding signal (log2 normalized intensity) was 2.98.

As to TATTTGTAGCTTCAAACCAGTTATTCCAAG, the binding signal (log2 normalized intensity) is -1.04.

Turning to TCTCTCTCCACCTGGAGGGACTTTGTCCCA, the binding signal (log2 normalized intensity) turned out to be 5.66.

Turning to TTTCTGTAAAGCTTTATTTTGGGGCTGTAT, the binding signal (log2 normalized intensity) is 0.736.

Take ATAAGCACCCTGCTCCAGCCAGAGGCCTTA: the binding signal (log2 normalized intensity) is -1.17.

For the sequence CCTTGGGACAGCTGGCCTCATGCCTTATCT, the binding signal (log2 normalized intensity) was -1.3.

On to CTTATCTGAGGTGCCCTTACATTTTGCTCT, for which the binding signal (log2 normalized intensity) stood at 1.39.

As to AGAGATCAAAGGGGAGGTGGGAAAAGAAAT, the binding signal (log2 normalized intensity) was -1.37.

As for GTCGCCGTGAGGTTATTTGCAGACTCTGTT, the binding signal (log2 normalized intensity) worked out at 1.09.

Consider CAAAACAACCACTCTTATCAGACAGGATAT, for which the binding signal (log2 normalized intensity) is -0.714.

For the sequence GTCCCACAGGGAAAGTATGGGTCAGCCCTG, the binding signal (log2 normalized intensity) came out at 1.03.

Consider GAAGAAGTTGCTCAGTGTTCCACAGCAAGT, for which the binding signal (log2 normalized intensity) is -1.32.

For the sequence ACCAGATCTTACTTTGAGGTGTTCTCTGGG, the binding signal (log2 normalized intensity) was found to be 1.31.

As for TAGGTTGGAGGAGCTGAACTGTAACCTCAA, the binding signal (log2 normalized intensity) came out at 1.39.

With CCAGTTCCAGGGATGTCTTTTTCTGACCCA, the binding signal (log2 normalized intensity) was 2.73.

For TAGTGATTTAGGCTTTTGGGCCCTGTCTGA, the binding signal (log2 normalized intensity) is 0.78.

As to GAGATGCTGGGTGGCATAGTTGATGTCAAT, the binding signal (log2 normalized intensity) stood at 0.654.

With TGAGAAACCACAGGAGTGCCGTGAGGGGTT, the binding signal (log2 normalized intensity) is -1.31.

CTGAGGTGCTCTCAGATAAGAGATGAGGAA: the binding signal (log2 normalized intensity) is -1.37.

On to AAGCATGACAAAATAACGAAGGCATTCTTA, for which the binding signal (log2 normalized intensity) is -0.858.

Regarding GTACCTAGGACAAAGCAAACACTCATTTCA, the binding signal (log2 normalized intensity) is -1.35.

On to ACACTGAGGAAAAGCTGTCTACAAACACAG, for which the binding signal (log2 normalized intensity) was -1.3.

Regarding TATGAGAGAGAGAGAGAGGTGGGCAAAGGT, the binding signal (log2 normalized intensity) worked out at 1.33.

Take GGGGCCTGAGGAAAGGAAGATGCACATTCC: the binding signal (log2 normalized intensity) was -1.3.

With TTCCGGGGGCGGTTTTTCCATTGTACTCAG, the binding signal (log2 normalized intensity) was found to be 1.95.

For the sequence TAGGTTTTTTTTTTTTTTAACGGTCTGCCC, the binding signal (log2 normalized intensity) is 2.46.

Consider GTTGCCCGCTTGGCCCTCTTCCAAGTGTTC, for which the binding signal (log2 normalized intensity) was 1.63.

As to GAAATAAAAGAGCCTGAGCCACTTCACTGG, the binding signal (log2 normalized intensity) is -1.3.

For the sequence TATGTGCTCACTCCTGGGACAAGGACTTTG, the binding signal (log2 normalized intensity) is 3.11.

In the case of TTGGGAGGGAAGAGGCAAGGAAAGATAAAT, the binding signal (log2 normalized intensity) is -1.07.

TCCGAACTATTTGGTGCACAAGAGGGCAGT: the binding signal (log2 normalized intensity) came out at 1.23.

Take GGATCCTTGGAGGACCTTGGGTTCATTTTA: the binding signal (log2 normalized intensity) is 2.86.

GAAAAAGCCCAAGAAACTTCAAAGAGTGCA: the binding signal (log2 normalized intensity) is -1.3.

As for AATAATCTAGAAACCAGTGAGAAAATGGTG, the binding signal (log2 normalized intensity) is -0.667.

Turning to CCCTGGTCCAGGCCATGCAACAGCCTCCTC, the binding signal (log2 normalized intensity) was -1.33.

Regarding ATCGCCCTTTGAGGAGGCCTTTCCTGACCC, the binding signal (log2 normalized intensity) was found to be 3.43.

As for CTCCGGTCAAGATCAAGTGGAGCCTCTCCT, the binding signal (log2 normalized intensity) is -1.22.

Turning to ATAGCCACTGGGGTCATGGAGCTGGAGGGC, the binding signal (log2 normalized intensity) was found to be 0.632.
